Data published in PMC4336329 (PLoS ONE, 2015).
About 14,000 (4.5%) of roughly 310,000 compounds showed an effect of 50% or more. The effect is printed as a negative number. The list shows a part of the results.

The compounds below were run against human ether-à-go-go-related gene (hERG) potassium channel (human, UniProt Q12809) (assay: primary screen, population patch clamp on CHO cells stably expressing hERG).
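Further: peak tail current of the secondary pulse compared with the same well before compound.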

human ether-à-go-go-related gene (hERG) potassium channel, sequence (Q12809 whole entry, looked up): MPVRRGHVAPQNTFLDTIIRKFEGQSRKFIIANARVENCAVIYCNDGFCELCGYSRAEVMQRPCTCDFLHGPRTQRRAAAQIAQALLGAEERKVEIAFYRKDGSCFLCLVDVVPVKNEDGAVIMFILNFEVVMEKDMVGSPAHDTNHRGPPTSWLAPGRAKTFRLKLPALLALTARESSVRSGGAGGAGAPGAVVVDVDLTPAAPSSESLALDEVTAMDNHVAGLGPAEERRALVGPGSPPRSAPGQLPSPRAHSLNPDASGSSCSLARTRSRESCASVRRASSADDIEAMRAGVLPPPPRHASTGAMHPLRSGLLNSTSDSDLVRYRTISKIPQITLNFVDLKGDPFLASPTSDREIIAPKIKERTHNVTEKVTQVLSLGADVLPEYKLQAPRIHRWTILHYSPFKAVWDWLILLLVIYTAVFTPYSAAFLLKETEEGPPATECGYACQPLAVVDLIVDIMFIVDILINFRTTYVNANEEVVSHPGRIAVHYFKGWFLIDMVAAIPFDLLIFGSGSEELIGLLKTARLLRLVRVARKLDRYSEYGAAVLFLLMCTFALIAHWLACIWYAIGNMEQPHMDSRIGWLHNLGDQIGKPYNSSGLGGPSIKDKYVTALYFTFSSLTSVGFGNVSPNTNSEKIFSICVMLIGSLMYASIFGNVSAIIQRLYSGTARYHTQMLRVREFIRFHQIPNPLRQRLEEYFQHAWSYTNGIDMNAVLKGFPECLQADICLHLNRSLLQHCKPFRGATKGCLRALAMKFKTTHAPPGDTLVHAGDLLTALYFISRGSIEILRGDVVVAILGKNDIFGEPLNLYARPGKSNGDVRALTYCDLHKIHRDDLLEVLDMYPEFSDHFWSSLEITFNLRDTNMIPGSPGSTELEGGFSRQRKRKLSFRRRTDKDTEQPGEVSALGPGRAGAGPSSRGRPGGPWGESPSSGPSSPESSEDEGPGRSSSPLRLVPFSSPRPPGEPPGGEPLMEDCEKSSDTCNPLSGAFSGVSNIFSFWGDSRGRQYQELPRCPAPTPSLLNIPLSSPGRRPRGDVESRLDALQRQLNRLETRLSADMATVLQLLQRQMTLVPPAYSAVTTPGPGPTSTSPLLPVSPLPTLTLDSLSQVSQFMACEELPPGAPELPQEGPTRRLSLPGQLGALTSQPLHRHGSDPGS

SMILES	hERG current change (%, negative = inhibition) at 10uM [%]
CCCC(=O)Nc1cccc(Oc2ccc3c(c2)C(=O)NC3=O)c1	-5.14
Cc1ccsc1C1C2=C(CC(C)(C)CC2=O)Nc2ncnn21 (centres unmarked)	1.79
O=C(NNS(=O)(=O)c1ccc(F)cc1)c1cccc(O)c1	16.5
COc1cc(/C=N/NC(=O)c2nnn(-c3nonc3N)c2-c2cccs2)ccc1O	3.14
CCNC(=O)COc1ccc(-c2ccccc2)cc1	-19.4
COc1cc2c(cc1OC)C(=O)CCS2	-7.32
CNCc1ccccc1Sc1ccc(O)c(O)c1.O=C([O-])/C=C\C(=O)[O-]	-38.4
CCCCn1c(N2CCCC2)nc2c1c(=O)[nH]c(=O)n2C	6.34
COc1cccc(NC(=O)CC2SC(=Nc3ccccc3)NC2=O)c1 (centres unmarked)	-0.157
Cc1ccc(S(=O)(=O)NCC2CCC(C(=O)NCc3ccco3)CC2)cc1 (centres unmarked)	-23.8
C=C1CCN([C@@H](CC(C)C)C(=O)NCCCc2ccccc2)S(=O)(=O)c2ccccc21	-21.1
O=C(CSc1nnc(Cc2ccccc2)o1)NC1CC2CCC1C2 (centres unmarked)	-0.675
O=C(O)C(=O)O.c1ccc(-c2ccccc2OCCN2CCCCC2)cc1	-45.9
O=C(Nc1ncccc1O)c1ccc(OCC2CCCO2)cc1 (centres unmarked)	21.3
COc1ccc(NC(C)=O)cc1NS(=O)(=O)c1ccc2c(c1)OCCO2	21.4
Cc1ccc(S(=O)(=O)NC(=O)c2ccccc2F)cc1	-10.5
COc1ccc(NC(=O)c2oc3ccccc3c2C)cn1	23.5
Cc1ccc(-c2ccc(/C=N\n3cnnc3)o2)c(Br)c1	4.33
CCC(C)(C)C1CCC(=NNS(=O)(=O)c2ccc(C)c([N+](=O)[O-])c2)CC1 (centres unmarked)	8.84
S=C(NCCCN1CCOCC1)N1CCN(c2ccccc2)CC1	-1.28
COc1ccccc1C(=O)NCC(=O)n1nc(C)cc1C	22.8
CCn1c(SCC(=O)Nc2ccc(S(=O)(=O)Nc3ccccn3)cc2)nnc1-c1ccncc1	1.35
Cc1ccccc1NC(=O)COc1coc(CN2CCCc3ccccc32)cc1=O	-16.9

SMILES	hERG current change (%, negative = inhibition) at 10uM [%]
C=CCOn1c(=O)c(-c2ccc(Br)cc2)[n+]([O-])c2ccccc21	11.7
CCOC(=O)CSC1=C(C#N)C(c2sccc2C)CC(=O)N1 (centres unmarked)	-23.6
Cc1ccnc2nc(C(=O)OCC(=O)c3ccc(Cl)cc3)nn12	12.6
COc1ccc(CCC(C)N2CCC(CO)(Cc3ccccc3)CC2)cc1 (centres unmarked)	-73.4
Cn1c(SCCOc2ccccc2F)nc2ccccc2c1=O	10.2
CCC(=O)Nc1c2c(nc3c1CCC3)CCCC2	-7.07
CCOC(=O)C1=C(CSc2nc(C)cc(C)c2C#N)OC(N)=C(C#N)C1c1ccccc1.CN(C)C=O (centres unmarked)	0.173
Cc1cc(C)c[n+](CC(=O)c2cc3ccccc3oc2=O)c1.[Br-]	-36.1
CCOC(=O)c1c(NC(=O)CN(CC)CC)sc2c1CCC2	-9.74
CCOc1ccc(C(=O)c2cccs2)cc1	-6.82
Cc1ccc2nc(-c3ccc(NS(=O)(=O)c4ccccc4)cc3)sc2c1	11
CCOC(=O)COc1cc([N+](=O)[O-])cc2cccnc12	0.631
N#Cc1nc(COc2ccc(Br)cc2)oc1N1CCCCCC1	-30.1
CC1CC(=O)c2cnc(NCC3CCCO3)nc2C1 (centres unmarked)	5.18
Cc1ccccc1NC(=O)COC(=O)Cc1cccc(C(F)(F)F)c1	6.41
Cc1c(C(=O)Nc2ccncc2)oc2ccccc12	-6.79
COc1ccc(OC)c(CCNC(=O)CCc2nnc3ccc(N4CCCCC4)nn23)c1	-22.8
Cc1ccccc1COC(=O)CNC(=O)c1sc2ccccc2c1Cl	-3.79
Cc1nc2ccc(Cl)cc2nc1C	2.73
COCCNC(=O)Cn1nc(Cc2ccncc2)c2ccccc2c1=O	6.39
Cc1ccc2oc(-c3ccco3)nc2c1	-1.55
CCOc1ccc(C(CC(=O)O)NC(=O)COc2ccccc2OC)cc1OC (centres unmarked)	26.4
COc1ccccc1NC(=O)COC(=O)c1c[nH]c2ccccc12	11.7

SMILES	hERG current change (%, negative = inhibition) at 10uM [%]
COc1ccc(N2CCN(C(=O)c3ccc(N4CCCCS4(=O)=O)cc3)CC2)cc1	7.44
Nc1ccccc1NC(=O)c1ccccc1N	-0.193
CCOc1cc(C2c3c(n[nH]c3C)C(=O)N2c2ccc(Br)cc2)ccc1O (centres unmarked)	-3.62
COC(=O)c1cnn(C(=O)c2cc(OC)ccc2Br)c1N	4.21
Cc1ccc(C2CC(c3cccc(Cl)c3)n3nc(N)nc3N2)cc1 (centres unmarked)	5.87
Cc1cc(=O)oc2cc(OCC(=O)OCC(=O)Nc3ccc(C(N)=O)cc3)ccc12	8.64
CCOC(=O)c1cc(C(=O)OCC)cc(-n2cc(O)c(C(=O)OCC)n2)c1	13.1
O=C(O)c1cc([N+](=O)[O-])ccc1C(=O)Nc1ccccc1	12.7
CSc1ccn(CCC(=O)O)c(=O)n1	8.46
Nc1c(C(=O)C2CC2)sc2nc(-c3cccs3)cc(C(F)(F)F)c12	19.9
COc1ccc(N(CC(=O)N2CCCCCC2)S(=O)(=O)c2c(C)[nH]c(=O)[nH]c2=O)cc1	2.82
CCOC(=O)c1cc(=O)n(-c2ccc(Cl)cc2C)[nH]1	9.94
CCOC(=O)/C(C#N)=C/c1c(OCC)n(CC)c2ccccc12	-5.46
CCn1c(SCC(=O)Nc2cc(C)on2)nnc1-c1ccco1	-4.87
COc1ccccc1/C=C/C(=O)Oc1cccc2cccnc12.Cl	3.93
COc1cccc(-c2ccc(C#N)c(SCC(=O)NCCc3ccccc3)n2)c1	2.15
Cl.c1ccc2c3c([nH]c2c1)C1(CCCCC1)NCC3	2.11
O=C(NC1CCCCC1)C(c1cccs1)N(C(=O)c1ccco1)c1ccc2c(c1)OCCO2 (centres unmarked)	-7.63
O=C(N/C(=C\c1ccc(Br)cc1)C(=O)N1CCOCC1)c1ccco1	-41
CCOc1ccc(C=Nc2cccc3ncccc23)cc1	2.86
CCCCc1nnc(NC(=O)c2nc3nccc(C)n3n2)s1	13.7
Cc1ccc(N2C(=O)CC(NCc3ccc4c(c3)OCO4)C2=O)cc1Cl (centres unmarked)	-54.8
CSc1cccc(NC(=O)Nc2ccccc2C(N)=O)c1	15.3

SMILES	hERG current change (%, negative = inhibition) at 10uM [%]
C=CCN1C(=O)C(Cc2ccc(OCC)cc2)SC1=Nc1ccc(C(=O)O)cc1 (centres unmarked)	-2.45
Cc1cccn2c(NC(=O)c3ccccc3F)c(-c3ccccc3)nc12	-6.62
C=CCn1c(=O)c2ccccc2n2c(SCC(N)=O)nnc12	2.96
Cc1cc(-c2nnc(SCC(=O)Nc3ccc(F)cc3F)n2N)n[nH]1	1.14
COc1ccc(C)cc1NC(=O)COC(=O)C1CC1	6.16
O=C(CNC(=O)c1sc2ccccc2c1Cl)OCc1ccccc1	3.28
C=CCN(c1ccccc1)S(=O)(=O)c1ccc(Cl)c(C(=O)OCC(=O)NCCCN2CCCC2=O)c1	-10.6
CN1C(=O)c2oc3ccccc3c(=O)c2C1c1ccncc1 (centres unmarked)	2.48
O=C(Nc1ccc(NC(=O)c2ccco2)nc1)c1ccccn1	15.8
Cc1cc(C)cc(N2C(=O)CSC2c2cccs2)c1 (centres unmarked)	-3.11
CC1CN(C(=O)CSc2nnc(-c3ccccc3)o2)CC(C)O1 (centres unmarked)	17.3
Cc1c(/C=C(\C#N)C(=O)NCc2ccccc2)cc(C#N)n1C	10.4
O=C(c1ccc(Oc2ccc([N+](=O)[O-])cc2)cc1)N1CCCCCC1	-25.5
Cc1cc(/C(N)=N/OC(=O)c2ccc(Cl)cc2)no1	3.62
Oc1ccc(-c2nncn2-c2ccccc2)cc1	14.5
CCOC(=O)C1CCN(c2c(NCc3ccc(C(=O)NCCC(C)C)cc3)c(=O)c2=O)CC1	0.362
O=C1CCCC2=C1C(c1ccccc1)C1C(=O)c3ccccc3C1=N2 (centres unmarked)	6.16
Cc1ccc(-c2cc(C(F)F)n3ncc(C(=O)NN4CCCCC4)c3n2)cc1	23.8
COc1ccc(C(=O)NC(Cc2c[nH]c3ccccc23)C(=O)O)cc1 (centres unmarked)	12.4
COC(=O)N[C@H](CC(C)=O)c1ccccc1	13.8
O=C(Nc1ccc(S(=O)(=O)NCc2ccccc2)cc1)Nc1ccc2c(c1)OCO2	3.16
CCC(C)NC(=O)CSc1nc2ccccc2c(=O)n1Cc1ccc(OC)cc1 (centres unmarked)	0.538
CCCCCn1c(CNC(=O)CC)nc2ccccc21	-17
